Data on one molecule can be found in patent US20180094059A1.

For this assay, the target named is antigen- and TRAIL receptor-expressing Colo205 cells. In words: flow cytometry, Colo205 cells. For orientation: Flow cytometry measures light scatter and fluorescence of single cells or particles in a stream.

B1: scFvhu225-Fc-scTRAIL3-… (Fc fusion)
chain: DYKDDDDKGGGGSGTEVQLVESGGGLVQPGGSLRLSCAASGFSLTNYGVHWVRQAPGKGLEWLGVIWSGGNTDYNTPFTSRFTISRDNSKNTLYLQMNSLRAEDTAVYYCARALTYYDYEFAYWGQGTTVTVSSGGGGSGGGGSGGGGSDIQLTQSPSFLSASVGDRVTITCRASQSIGTNIHWYQQKPGKAPKLLIKYASESISGVPSRFSGSGSGTEFTLTISSLQPEDFATYYCQQNNNWPTTFGAGTKLEIKRAAAGGSGG[sequence of human IgG1 Fc omitted]GGSGGGSSGGGPQRVAAHITGTRGRSNTLSSPNSKNEKALGRKINSWESSRSGHSFLSNLHLRNGELVIHEKGFYYIYSQTYFRFQEEIKENTKNDKQMVQYIYKYTSYPDPILLMKSARNSCWSKDAEYGLYSIYQGGIFELKENDRIFVSVTNEHLIDMDHEASFFGAFLVGGGPQRVAAHITGTRGRSNTLSSPNSKNEKALGRKINSWESSRSGHSFLSNLHLRNGELVIHEKGFYYIYSQTYFRFQEEIKENTKNDKQMVQYIYKYTSYPDPILLMKSARNSCWSKDAEYGLYSIYQGGIFELKENDRIFVSVTNEHLIDMDHEASFFGAFLVGGGPQRVAAHITGTRGRSNTLSSPNSKNEKALGRKINSWESSRSGHSFLSNLHLRNGELVIHEKGFYYIYSQTYFRFQEEIKENTKNDKQMVQYIYKYTSYPDPILLMKSARNSCWSKDAEYGLYSIYQGGIFELKENDRIFVSVTNEHLIDMDHEASFFGAFLVG
In turn, B1 displayed an EC50 of 1.33 nM.

A word on the EC50: it is the concentration at which the effect is half-maximal. Low readings indicate higher potency in that assay, high ones lower potency in that assay.
